{
  "source": "the supplement of paper PMC8512760",
  "note": "The other results are listed elsewhere or left out. Repeats are few or missing, and single values can be far off.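 Note: stably firefly luciferase-GFP labeled cells in 96-well plates, viability read as luciferase photon flux after d-luciferin addition, treated wells normalized to vehicle wells, single-dose high-throughput screen.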",
  "data": [
    {"tested_on": "HCC-1187", "test": "cell viability relative to vehicle (% of vehicle); basal-like triple-negative breast cancer lines; higher = less cytotoxic", "settings": "10 µM; 72 h", "values": [
      {"smiles": "COc1cc(Nc2c(C#N)cnc3cc(OCCCN4CCN(C)CC4)c(OC)cc23)c(Cl)cc1Cl", "note": "[Bosutinib (SKI-606)]", "cell viability": 74.2},
      {"smiles": "COc1c(C)c2c(c(O)c1CC=C(C)CCC(=O)O)C(=O)OC2", "note": "[Mycophenolic acid]", "cell viability": 71.8},
      {"smiles": "O=C1OC(C(O)CO)C(O)=C1O", "note": "(stereo unspecified) [Vitamin C]", "cell viability": 113},
      {"smiles": "COc1cc(C(C)=O)ccc1OCCCN1CCC(c2noc3cc(F)ccc23)CC1", "note": "[Iloperidone]", "cell viability": 74.5},
      {"smiles": "O=C(NC1CCN(CCCCC2(C(=O)NCC(F)(F)F)c3ccccc3-c3ccccc32)CC1)c1ccccc1-c1ccc(C(F)(F)F)cc1", "note": "[Lomitapide]", "cell viability": 26.2},
      {"smiles": "NCCc1cnc[nH]1.O=P(O)(O)O.O=P(O)(O)O", "note": "[Histamine Phosphate]", "cell viability": 86.1},
      {"smiles": "Nc1ccc(C(=O)[O-])c(O)c1.O.O.[Na+]", "note": "[Sodium 4-Aminosalicylate]", "cell viability": 87.7},
      {"smiles": "CC(COc1ccccc1)N(CCCl)Cc1ccccc1.Cl", "note": "(stereo unspecified) [Phenoxybenzamine HCl]", "cell viability": 118},
      {"smiles": "CC1(C)Cc2c(-c3ccccc3)c(-c3ccc(Cl)cc3)c(CC(=O)O)n2C1", "note": "[Licofelone]", "cell viability": 88.5},
      {"smiles": "CN(N=O)C(=O)NC1C(O)OC(CO)C(O)C1O", "note": "(stereo unspecified) [Streptozocin]", "cell viability": 81.4},
      {"smiles": "CCN1CCN(C(=O)NC(C(=O)NC2C(=O)N3C(C(=O)O)=C(CSc4nnnn4C)CSC23)c2ccc(O)cc2)C(=O)C1=O", "note": "(stereo unspecified) [Cefoperazone]", "cell viability": 98.7},
      {"smiles": "O=c1c(-c2ccc(O)cc2)coc2cc(O)ccc12", "note": "[Daidzein]", "cell viability": 119},
      {"smiles": "Cl.O=C(CCCN1CCC(O)(c2ccc(Cl)cc2)CC1)c1ccc(F)cc1", "note": "[Haloperidol hydrochloride]", "cell viability": 80.2},
      {"smiles": "CS(=O)(=O)c1ccc(C(O)C(CO)NC(=O)C(Cl)Cl)cc1", "note": "(stereo unspecified) [Thiamphenicol]", "cell viability": 96.4},
      {"smiles": "CCOc1ccc(Cc2cc(C3OC(CO)C(O)C(O)C3O)ccc2Cl)cc1", "note": "(stereo unspecified) [Dapagliflozin]", "cell viability": 87.7},
      {"smiles": "CN(C)C(=O)NC1CCC(CCN2CCN(c3cccc(Cl)c3Cl)CC2)CC1", "note": "(stereo unspecified) [Cariprazine]", "cell viability": 93.1},
      {"smiles": "NC(CO)(CO)CO.O=C(c1ccccc1)c1ccc2n1CCC2C(=O)O", "note": "(stereo unspecified) [Ketorolac tromethamine salt]", "cell viability": 94.6},
      {"smiles": "C.CCN1CC(CCN2CCOCC2)C(c2ccccc2)(c2ccccc2)C1=O.O", "note": "(stereo unspecified) [Doxapram HCl]", "cell viability": 78.4},
      {"smiles": "CN(C)CCOC(C)(c1ccccc1)c1ccccn1.O=C(O)CCC(=O)O", "note": "(stereo unspecified) [Doxylamine Succinate]", "cell viability": 103},
      {"smiles": "CC(C)Cc1ccc(C(C)C(=O)O)cc1", "note": "(stereo unspecified) [Ibuprofen]", "cell viability": 76.9},
      {"smiles": "CC(=O)Oc1cc2c(s1)CCN(C(C(=O)C1CC1)c1ccccc1F)C2.Cl", "note": "(stereo unspecified) [Prasugrel hydrochloride]", "cell viability": 113},
      {"smiles": "O=C([O-])CCCc1ccccc1.[Na+]", "note": "[Sodium Phenylbutyrate]", "cell viability": 91.8},
      {"smiles": "Cl.O=C1c2cccc3c2C(CCC3)CN1C1CN2CCC1CC2", "note": "(stereo unspecified) [Palonosetron HCl]", "cell viability": 84.1},
      {"smiles": "CC1(c2nc3c(C(N)=O)cccc3[nH]2)CCCN1", "note": "(stereo unspecified) [ABT-888 (Veliparib)]", "cell viability": 77.3},
      {"smiles": "CO[C@H]1C[C@@H]2CC[C@@H](C)[C@@](O)(O2)C(=O)C(=O)N2CCCC[C@H]2C(=O)O[C@H]([C@H](C)C[C@@H]2CC[C@@H](OC(=O)C(C)(CO)CO)[C@H](OC)C2)CC(=O)[C@H](C)/C=C(\\C)[C@@H](O)[C@@H](OC)C(=O)[C@H](C)C[C@H](C)/C=C/C=C/C=C/1C", "note": "[Temsirolimus]", "cell viability": 113},
      {"smiles": "CCCNC(C)C(=O)Nc1ccccc1C.Cl", "note": "(stereo unspecified) [Prilocaine hydrochloride]", "cell viability": 120},
      {"smiles": "S=P(N1CC1)(N1CC1)N1CC1", "cell viability": 100},
      {"smiles": "CCCCC(=O)OC1(C(=O)CO)C(C)CC2C3CCC4=CC(=O)C=CC4(C)C3(F)C(O)CC21C", "note": "(stereo unspecified) [Betamethasone Valerate]", "cell viability": 110},
      {"smiles": "CN(C)CCOC(c1ccccc1)c1ccccc1.Cl", "note": "[Diphenhydramine HCl]", "cell viability": 94.1},
      {"smiles": "CC1(C)SC2C(NC(=O)C(NC(=O)N3CCNC3=O)c3ccccc3)C(=O)N2C1C(=O)[O-].[Na+]", "note": "(stereo unspecified) [Azlocillin sodium salt]", "cell viability": 77.4},
      {"smiles": "Cc1ccc(Nc2nccc(N(C)c3ccc4c(C)n(C)nc4c3)n2)cc1S(N)(=O)=O.Cl", "cell viability": 93.8}
    ]}
  ]
}
